According to the supplement of paper PMC10441789:
Some of the results follow. Antibody binding of pooled human sera (four to six donors per pool; dilution not stated) to peptides of the Trypanosoma cruzi antigen TSSA on microarrays. Quantile-normalised fluorescence in arbitrary units, mean of duplicate arrays; higher = more binding. No active / inactive call. The uninfected pools are read here as the healthy donors of the same country. The strongest signals lie near the top of the scale (about 60,000).

How the values were obtained:
Test in all cases: antibody binding signal (normalised fluorescence) (arbitrary fluorescence units); higher = stronger serum antibody binding to peptide
[1] = test system: pooled sera of chronic Chagas disease patients, Argentina
Protocol: (§1)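 Microarray of 15-residue peptides over residues 30-55 of Trypanosoma cruzi TSSAII, each with 1 to 10 substitutions at naturally variable positions, probed with one serum pool per country.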

[2] = test system: pooled sera of chronic Chagas disease patients, Bolivia
Protocol: as §1

[3] = test system: pooled sera of chronic Chagas disease patients, Brazil
Protocol: as §1

[4] = test system: pooled sera of chronic Chagas disease patients, Colombia
Protocol: as §1

[5] = test system: pooled sera of chronic Chagas disease patients, Mexico
Protocol: as §1

[6] = test system: pooled sera of chronic Chagas disease patients, USA
Protocol: as §1

[7] = test system: pooled sera of uninfected people, Argentina
Protocol: as §1

[8] = test system: pooled sera of uninfected people, Bolivia
Protocol: as §1

[9] = test system: pooled sera of uninfected people, Brazil
Protocol: as §1

[10] = test system: pooled sera of uninfected people, Mexico
Protocol: as §1

[11] = test system: pooled sera of uninfected people, USA
Protocol: as §1

Sequence	antibody binding signal [1]	antibody binding signal [2]	antibody binding signal [3]	antibody binding signal [4]	antibody binding signal [5]	antibody binding signal [6]	antibody binding signal [7]	antibody binding signal [8]	antibody binding signal [9]	antibody binding signal [10]	antibody binding signal [11]
GKENKAATGGTPSQS	4910	1120	11100	9820	7480	17700	324	91	167	209	131
DKKAATGGTPSQPGA	557	697	975	1700	590	1100	454	125	739	496	286
GTDNKTAAGGAPSQS	292	332	23800	4660	546	507	350	624	2070	305	202
TDNKTAAGGTPSPSG	1410	266	308	4470	355	1350	188	266	1310	1240	234
TEKKAAAGEAPSQPG	8040	20500	41400	489	499	13400	104	327	168	161	210
DNKTAAGEAPSQSGA	422	16600	11600	401	317	5980	117	240	268	186	126
PPSGTENKAAAGGAP	48800	41700	47400	1100	7030	11000	2070	982	334	268	1180
PPSGTEKKPATGETP	43700	28400	34100	914	6950	21600	1070	674	1150	1920	365
GTEKKPATGETPSPS	35800	19000	27500	2450	2840	23600	166	1320	1490	1920	2580
TPPSGKEKKTATGGA	10100	204	433	1450	7040	1010	376	273	104	107	154
NKPAAGEAPSQPGAS	9960	37400	45200	332	217	15700	567	1050	595	221	1060
GTEKKTAAGGTPSQS	619	233	296	8000	547	1720	213	289	1090	330	179
SGKEKKAAAGETPSP	3950	596	4940	2990	6590	6520	207	158	98.3	80	211
ENKAAAGETPSPSGA	490	520	8190	323	242	3310	176	201	113	178	712
KAATGGTPSPPGASS	466	365	217	259	293	161	284	117	385	99.2	154
GKENKAATGEAPSPS	28300	15800	33500	14700	10900	29000	444	184	125	128	170
PPSGTDNKAATGETP	37200	30400	42700	1010	886	12800	482	617	893	183	215
PSGKENKTATGEAPS	16000	13800	16700	3250	4770	21900	6100	3240	291	575	212
ENKPAAGEAPSQSGA	1370	23800	34700	365	299	19200	151	321	190	93.5	169
TPPSGKDKKPATGGT	15200	1250	5180	321	49500	769	207	270	357	117	158
GTDNKPATGGAPSPS	3970	19100	41600	1740	590	2470	248	1450	523	396	184
GTENKPAAGETPSPP	42700	3540	19600	1180	3360	5250	324	1170	227	167	335
SGKENKAATGEAPSP	29000	27400	36300	1870	2500	24200	8320	3520	140	459	271
GKDKKTAAGEAPSPP	315	223	293	604	700	4270	136	74.2	93.2	78.6	85.4
GTEKKTATGGAPSPP	2650	308	1920	4230	2950	2490	357	744	202	218	153
TPPSGTDNKTAAGEA	33900	26300	42100	642	13300	7870	599	383	638	125	174
SSTPPSGTEKKPAAG	46300	8160	46200	766	24900	12100	1390	1100	567	285	1050

Sequence	antibody binding signal [1]	antibody binding signal [2]	antibody binding signal [3]	antibody binding signal [4]	antibody binding signal [5]	antibody binding signal [6]	antibody binding signal [7]	antibody binding signal [8]	antibody binding signal [9]	antibody binding signal [10]	antibody binding signal [11]
SGKENKPATGGTPSQ	3440	1340	15500	3510	5000	16400	9540	4330	231	453	226
KENKPATGGAPSPSG	540	1850	2900	202	636	2560	366	806	133	124	190
GKDKKPATGGTPSQP	454	320	542	880	572	619	238	161	204	194	91.8
GKEKKAAAGETPSPP	3900	290	495	2270	3050	3270	109	88.5	106	88.3	127
TPPSGKEKKAATGET	10300	347	1240	903	9620	1510	448	668	109	109	164
TENKAATGGTPSQPG	29000	1180	11500	1220	597	1940	356	155	416	1040	255
DKKPATGEAPSQPGA	48300	43900	47000	221	439	43700	941	695	304	286	206
GTENKTAAGEAPSQP	29800	23400	39800	694	960	8310	196	384	195	190	124
GKENKPAAGGAPSQS	1150	554	4880	2140	3560	6650	903	181	139	168	168
GKDKKPATGGAPSQS	829	333	415	722	1220	1290	225	251	98	79.5	102
STPPSGKENKAATGG	39600	3820	10200	770	7560	3920	3080	1070	145	146	416
SGTEKKPATGGAPSP	5720	1980	5460	2600	3190	3960	569	1520	377	468	1340
GKDKKPAAGGAPSPS	243	203	147	1440	560	561	119	80.6	104	87.7	95.1
TDNKAATGGTPSPPG	357	949	309	295	456	184	163	250	332	132	92.1
GTDNKAATGGTPSPS	384	812	32100	337	453	221	191	735	1880	191	121
PSGKDNKPATGGTPS	3180	813	6170	4550	3860	6210	774	996	183	133	152
TEKKTATGGTPSQSG	1220	441	1050	4680	912	2320	490	142	434	518	225
NKPAAGEAPSPPGAS	1060	2460	30000	402	186	13300	473	1010	362	159	1380
SSTPPSGKENKPAAG	41700	7790	25800	440	14900	13800	3670	2000	214	275	735
GKENKPATGGTPSPS	2920	668	8980	5780	5960	12600	762	441	181	184	172
SGKEKKAATGEAPSQ	17800	4490	20800	1460	3540	19800	448	166	87.3	86.2	124
ISTPPSGTEKKPAAG	49600	27800	43600	834	26000	11900	1290	1150	447	456	1220
GKDKKTATGGTPSPS	447	229	221	1340	676	1530	182	93.1	101	78.2	94.6
SGKEKKPATGGTPSQ	3910	411	3770	2760	3800	4230	307	139	194	88.9	230
PSGTEKKPAAGEAPS	34200	12800	23100	11300	11400	16200	736	601	828	805	725
DNKTAAGGTPSQSGA	1800	334	593	5630	483	1470	396	426	1740	2490	217
